34 variants from the GPR68 mutational scans of Howard et al. (2025) can be followed below.

The least precise scores are not listed. The source holds two more conditions with little spread; they are left out. In variant names, del marks residues removed and ins residues inserted between the two positions. For part of these data: The concentration of ogerin is not given here.

Sequences and labels used below:
B1: GPR68, Q15743 (parent)
chain: MGNITADNSSMSCTIDHTIHQTLAPVVYVTVLVVGFPANCLSLYFGYLQIKARNELGVYLCNLTVADLFYICSLPFWLQYVLQHDNWSHGDLSCQVCGILLYENIYISVGFLCCISVDRYLAVAHPFRFHQFRTLKAAVGVSVVIWAKELLTSIYFLMHEEVIEDENQHRVCFEHYPIQAWQRAINYYRFLVGFLFPICLLLASYQGILRAVRRSHGTQKSRKDQIQRLVLSTVVIFLACFLPYHVLLLVRSVWEASCDFAKGVFNAYHFSLLLTSFNCVADPVLYCFVSETTHRDLARLRGACLAFLTCSRTGRAREAYPLGAPEASGKSGAQGEEPELLTKLHPAFQTPNSPGSGGFPTGRLA

Data set [1] covers variants of B1. As to the kind of experiment: cAMP reporter score (Enrich2 score, wild type = 0); higher = more signal; HEK293T, FACS bins.
Data set [2] covers variants of B1. As to the kind of experiment: surface expression score (Enrich2 score, wild type = 0); higher = more signal; HEK293T, FACS bins.

On to A184H, for which the cAMP reporter score in data set [1] (pH 5.5) was 1.03; in data set [1] (pH 6) it was 1.15; in data set [1] (pH 6, modulator: ogerin) it was 0.842; in data set [1] (pH 6.5, modulator: ogerin), 2.43. The surface expression score in data set [2] was 1.5.

For the variant A184K, the cAMP reporter score in data set [1] (pH 5.5) was found to be 2.23; in data set [1] (pH 6), 3.59; in data set [1] (pH 6, modulator: ogerin), 0.997; in data set [1] (pH 6.5, modulator: ogerin) it was 3.91. In addition, the surface expression score in data set [2] is 2.57.

As to A184Q, the cAMP reporter score in data set [1] (pH 5.5) is -1.32; in data set [1] (pH 6) it was -0.98; in data set [1] (pH 6, modulator: ogerin), -1.67; in data set [1] (pH 6.5, modulator: ogerin), -1.34. Besides, the surface expression score in data set [2] was -0.951.

For the variant A184R, the cAMP reporter score in data set [1] (pH 5.5) is -0.819; in data set [1] (pH 6) it was 1.06; in data set [1] (pH 6, modulator: ogerin) it was -0.232; in data set [1] (pH 6.5, modulator: ogerin) it was -0.066. Further, the surface expression score in data set [2] came out at 0.328.

A184N: the cAMP reporter score was 1.54 in data set [1] (pH 5.5); 0.854 in data set [1] (pH 6, modulator: ogerin); 0.573 in data set [1] (pH 6.5, modulator: ogerin). Also, the surface expression score in data set [2] was determined as 0.598.

A184P: the cAMP reporter score in data set [1] (pH 5.5) worked out at 0.477; in data set [1] (pH 6), 2.24; in data set [1] (pH 6, modulator: ogerin) it was 0.545; in data set [1] (pH 6.5, modulator: ogerin), 2.51. Also, the surface expression score in data set [2] was 0.231.

As for A184W, the cAMP reporter score in data set [1] (pH 5.5) was -0.464; in data set [1] (pH 6, modulator: ogerin), -1.93; in data set [1] (pH 6.5, modulator: ogerin), 0.632. In data set [2], the surface expression score was -2.31.

Consider A184Y, for which the cAMP reporter score is -0.72 in data set [1] (pH 5.5); -0.567 in data set [1] (pH 6, modulator: ogerin); 0.443 in data set [1] (pH 6.5, modulator: ogerin). The surface expression score in data set [2] was -0.914.

On to A184E, for which the cAMP reporter score in data set [1] (pH 5.5) is 1.86; in data set [1] (pH 6, modulator: ogerin) it was 1.67; in data set [1] (pH 6.5, modulator: ogerin), 0.456. The surface expression score in data set [2] is -0.804.

As for A184V, the cAMP reporter score is 0.658 in data set [1] (pH 5.5); -0.56 in data set [1] (pH 6); 0.1 in data set [1] (pH 6, modulator: ogerin); 0.066 in data set [1] (pH 6.5, modulator: ogerin). In data set [2], the surface expression score is -0.642.

Take A184D: the cAMP reporter score was 0.099 in data set [1] (pH 5.5); 0.535 in data set [1] (pH 6); -0.242 in data set [1] (pH 6, modulator: ogerin); -0.081 in data set [1] (pH 6.5, modulator: ogerin). Besides, the surface expression score in data set [2] is -0.43.

On to A184I, for which the cAMP reporter score in data set [1] (pH 5.5) was 0.733; in data set [1] (pH 6, modulator: ogerin), -0.449; in data set [1] (pH 6.5, modulator: ogerin), -0.438.

As for W181_R183del, the cAMP reporter score in data set [1] (pH 5.5) is -1.46; in data set [1] (pH 6), -1.42; in data set [1] (pH 6, modulator: ogerin), -1.77; in data set [1] (pH 6.5, modulator: ogerin), -1.62. Further, in data set [2], the surface expression score is -2.02.

I178_Q179insGSG: the cAMP reporter score in data set [1] (pH 5.5) is -1.57; in data set [1] (pH 6) it was -0.242; in data set [1] (pH 6, modulator: ogerin), -1.92; in data set [1] (pH 6.5, modulator: ogerin) it was -1.65. The surface expression score in data set [2] is -1.94.

For A180_W181insGSG, the cAMP reporter score was -0.602 in data set [1] (pH 5.5); -1.27 in data set [1] (pH 6); -0.711 in data set [1] (pH 6, modulator: ogerin); -1.83 in data set [1] (pH 6.5, modulator: ogerin). Besides, the surface expression score in data set [2] was -1.03.

Take P177W: the cAMP reporter score in data set [1] (pH 5.5) was -1.67; in data set [1] (pH 6), -1.64; in data set [1] (pH 6, modulator: ogerin) it was -1.07.

For the variant P177S, the cAMP reporter score in data set [1] (pH 5.5) is -1.02; in data set [1] (pH 6), -1.58; in data set [1] (pH 6, modulator: ogerin), -1.41. Further, the surface expression score in data set [2] was -0.897.

On to P177H, for which the cAMP reporter score in data set [1] (pH 5.5) was -0.597; in data set [1] (pH 6), -0.658; in data set [1] (pH 6, modulator: ogerin) it was -0.588; in data set [1] (pH 6.5, modulator: ogerin) it was -0.504. For the same variant, the surface expression score in data set [2] is -0.748.

Consider P177M, for which the cAMP reporter score in data set [1] (pH 5.5) is -1.72; in data set [1] (pH 6) it was -0.82; in data set [1] (pH 6, modulator: ogerin), -1.16; in data set [1] (pH 6.5, modulator: ogerin), -1.48. The surface expression score in data set [2] was -2.01.

Consider P177E, for which the cAMP reporter score in data set [1] (pH 5.5) was -1.76; in data set [1] (pH 6) it was -0.624; in data set [1] (pH 6, modulator: ogerin), -1.23; in data set [1] (pH 6.5, modulator: ogerin), -0.169. The surface expression score in data set [2] was -0.901.

As for P177K, the cAMP reporter score was -1.58 in data set [1] (pH 5.5); -1.09 in data set [1] (pH 6); -0.359 in data set [1] (pH 6, modulator: ogerin); -0.466 in data set [1] (pH 6.5, modulator: ogerin). Moreover, the surface expression score in data set [2] is -0.797.

Regarding P177R, the cAMP reporter score in data set [1] (pH 5.5) is -1.21; in data set [1] (pH 6), -0.097; in data set [1] (pH 6, modulator: ogerin) it was -1.62; in data set [1] (pH 6.5, modulator: ogerin), -0.82. In addition, the surface expression score in data set [2] was -1.03.

As for P177A, the cAMP reporter score was -1.14 in data set [1] (pH 5.5); -1.27 in data set [1] (pH 6); -0.375 in data set [1] (pH 6, modulator: ogerin); -0.989 in data set [1] (pH 6.5, modulator: ogerin). In data set [2], the surface expression score was -1.26.

In the case of P177Y, the cAMP reporter score is -0.84 in data set [1] (pH 5.5); -1.76 in data set [1] (pH 6); -2.78 in data set [1] (pH 6, modulator: ogerin); -1.53 in data set [1] (pH 6.5, modulator: ogerin).

P177T: the cAMP reporter score in data set [1] (pH 5.5) is -1.55; in data set [1] (pH 6.5, modulator: ogerin), 0.205. Besides, in data set [2], the surface expression score is -0.474.

For P177V, the cAMP reporter score was -0.254 in data set [1] (pH 5.5); -0.661 in data set [1] (pH 6, modulator: ogerin); -0.698 in data set [1] (pH 6.5, modulator: ogerin). The surface expression score in data set [2] is -1.33.

Turning to P177G, the cAMP reporter score in data set [1] (pH 5.5) was -1.92; in data set [1] (pH 6, modulator: ogerin) it was -1.22; in data set [1] (pH 6.5, modulator: ogerin), -1.14. The surface expression score in data set [2] is -1.49.

Take P177N: the cAMP reporter score is -1.61 in data set [1] (pH 5.5); -1.13 in data set [1] (pH 6); -2.55 in data set [1] (pH 6, modulator: ogerin); -1.59 in data set [1] (pH 6.5, modulator: ogerin). Further, the surface expression score in data set [2] is -0.241.

For P177L, the cAMP reporter score in data set [1] (pH 5.5) is -1.17; in data set [1] (pH 6), -0.483; in data set [1] (pH 6, modulator: ogerin), -1.24; in data set [1] (pH 6.5, modulator: ogerin), -0.835. In data set [2], the surface expression score is -0.762.

For the variant P177D, the cAMP reporter score is -0.934 in data set [1] (pH 5.5); -1.64 in data set [1] (pH 6); -2.02 in data set [1] (pH 6, modulator: ogerin); -1.09 in data set [1] (pH 6.5, modulator: ogerin). In addition, the surface expression score in data set [2] is -1.38.

For P177C, the cAMP reporter score in data set [1] (pH 5.5) is -0.72; in data set [1] (pH 6), -0.98; in data set [1] (pH 6.5, modulator: ogerin) it was -1.06. Further, the surface expression score in data set [2] was -2.22.

Take P177Q: the cAMP reporter score in data set [1] (pH 5.5) is -0.411; in data set [1] (pH 6.5, modulator: ogerin), -2.11.

P177F: the cAMP reporter score was -1.62 in data set [1] (pH 5.5); -1.38 in data set [1] (pH 6); -0.96 in data set [1] (pH 6, modulator: ogerin); -1.37 in data set [1] (pH 6.5, modulator: ogerin).

As to W181del, the cAMP reporter score is -1.43 in data set [1] (pH 5.5); -1.38 in data set [1] (pH 6); -1.41 in data set [1] (pH 6.5, modulator: ogerin). For the same variant, the surface expression score in data set [2] is -0.452.
